PubChem BioAssay AID1645887 (National Center for Advancing Translational Sciences (NCATS), 2021)
Several values for one entry are separate records, joined by “and”; a condition that tells them apart may be missing. Equal entries are not always repeated. The whole screen tested about 16,000 compounds, of which about 40 (0.2%) were called active. About 1% were inconclusive and are not listed. Calls come from the whole dose curve; as a rule, active = well fitted activation curve with a large enough effect; inconclusive = small, poorly fitted or top-dose-only effect, or another doubt; inactive = no such curve, though single readings can be large or run the other way. The list shows a part of the results. Positions of bridges follow the written chain, without caps; N, C: chain ends. Non-standard residues stand in square brackets, D forms with d. Residues, ends and D or L forms follow the SMILES beside them. hArg = N=C(N)NCCCC[C@H](N)C(=O)O; pGlu = O=C1CC[C@@H](C(=O)O)N1; Thz = O=C(O)[C@@H]1CSCN1; Mpa = O=C(O)CCS

target: Rap guanine nucleotide exchange factor 4 (Homo sapiens) (UniProt Q8WZA2); test: Validation qHTS for agonist of cAMP-regulated guanine nucleotide exchange factor 4 (EPAC2); conditions: EPAC2 Rap1B BODIPY-GDP exchange, fluorescence; activation: hits give high values;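 note: exchange makes BODIPY-GDP fluorescence drop when released from Rap1B; series mostly up to about 150 µM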
UniProt Q8WZA2, sequence (Q8WZA2 whole entry, looked up): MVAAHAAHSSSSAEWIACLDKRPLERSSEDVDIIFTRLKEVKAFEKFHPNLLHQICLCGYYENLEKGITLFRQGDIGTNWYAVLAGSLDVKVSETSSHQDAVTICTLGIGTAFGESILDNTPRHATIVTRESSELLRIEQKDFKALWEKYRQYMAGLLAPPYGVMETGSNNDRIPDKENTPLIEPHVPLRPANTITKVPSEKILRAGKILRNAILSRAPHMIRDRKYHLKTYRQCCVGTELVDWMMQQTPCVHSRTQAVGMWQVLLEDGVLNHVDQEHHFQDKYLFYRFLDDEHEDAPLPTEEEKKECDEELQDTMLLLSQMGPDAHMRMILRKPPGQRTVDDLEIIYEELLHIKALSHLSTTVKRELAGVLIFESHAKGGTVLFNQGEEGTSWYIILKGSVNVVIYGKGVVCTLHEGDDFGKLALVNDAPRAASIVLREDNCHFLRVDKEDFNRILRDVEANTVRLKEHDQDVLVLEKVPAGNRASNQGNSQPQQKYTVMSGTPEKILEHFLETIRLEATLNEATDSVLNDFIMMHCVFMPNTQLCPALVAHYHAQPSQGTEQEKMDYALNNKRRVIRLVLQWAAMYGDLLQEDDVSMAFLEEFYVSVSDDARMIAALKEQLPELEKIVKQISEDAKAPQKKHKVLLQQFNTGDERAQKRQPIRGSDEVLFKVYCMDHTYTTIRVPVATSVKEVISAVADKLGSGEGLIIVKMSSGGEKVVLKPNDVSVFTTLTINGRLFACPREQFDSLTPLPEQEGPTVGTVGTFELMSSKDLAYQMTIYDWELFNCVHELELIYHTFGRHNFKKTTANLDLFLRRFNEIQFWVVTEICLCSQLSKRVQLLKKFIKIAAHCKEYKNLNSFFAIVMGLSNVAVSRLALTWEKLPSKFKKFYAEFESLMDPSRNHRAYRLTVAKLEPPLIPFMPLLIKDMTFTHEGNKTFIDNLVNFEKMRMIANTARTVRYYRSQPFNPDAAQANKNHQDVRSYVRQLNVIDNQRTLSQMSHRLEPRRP
In short: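 Signal normalized against 6.5 mM cAMP as agonist control. Mix of EPAC2 (100 nM), RAP1B-BODIPY-GDP (250 nM) and GDP (50 uM) was read kinetically at 480/540 nm, every 5 min over 30 min, after 5 min room-temperature incubation with compound.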
% is set by controls: 0 for no effect and ±100 for the full control effect.

activation, inactive:
CCCS(=O)(=O)NCc1c(C)ncc2c1CCN(C(=O)/C=C/c1cccc(Cl)c1)C2 -14.5%
COc1cc(C(O)CO)ccc1O (stereo not drawn) -9.96%
O=C(c1ccncc1)N1CCC2(CC1)CCN(c1ccc(-c3ccccc3)cc1)CC2 -7.17%
CC[C@H](C)[C@H](N)C(=O)O -24.3%
CC(=O)SC[C@@H](C)C(=O)N1CCC[C@H]1C(=O)N[C@@H](Cc1ccccc1)C(=O)O -8.66%
NC[C@@H]1O[C@H](C23CC4CC(CC(C4)C2)C3)Cc2c1ccc(O)c2O -17.4% and 4.75% and -48.3%
c1ccc2c(N3CCCCCC3)nc(CN3CCCCC3c3nccs3)nc2c1 (stereo not drawn) -20.2%
Cc1cnc2ccc3ccccc3c2c1C -14.8%
Cn1cccc1C(=O)N1CCC[C@@]2(CCN(Cc3nccs3)C2)C1 -11.3%
NC(=O)[C@@H]1CSSCCC(=O)N[C@@H](CCCCN=C(N)N)C(=O)NCC(=O)N[C@@H](CC(=O)O)C(=O)N[C@@H](Cc2c[nH]c3ccccc23)C(=O)N2CCC[C@H]2C(=O)N1 ([Mpa][hArg]GDWPC-NH2; disulfide 1-7) -3.2%
Cc1cccc(CNC(=O)c2cnn(-c3nccc(-c4ccccc4F)n3)c2C)n1 -15.1%
CN1CCN(CCCN2c3ccccc3Sc3ccccc32)CC1 2.68%
OCCN1CCN(Cc2ccc3c(c2)CN(Cc2cc4ccccc4o2)CCO3)CC1 -12.7%
C=C1C(=O)O[C@@H]2C3OC3(C)CC/C=C(\C)CC[C@@H]12 (stereo partly drawn) -8.65%
CCOC(=O)COc1ccc2c(C)c(CCN(CC)CC)c(=O)oc2c1 -5.18%
O[C@@H]([C@H](O)[C@H](O)CBr)[C@H](O)CBr 5.93%
C[C@@](Cc1ccc(O)c(O)c1)(NN)C(=O)O -7.82% and -15.8%
CC(NC(=O)c1cccnc1)c1nnc2n1CCN(Cc1ccc(-c3ccccc3Cl)o1)CC2 (stereo not drawn) 2.73%
Cc1ccc(SCCN2CCC(NC(=O)OCc3ccccc3)CCC2=O)cc1 (stereo not drawn) -18.7%
c1cncc(OC2CCN(Cc3ccc4c(c3)CN(Cc3ccc5c(c3)CCO5)CCO4)CC2)c1 -2.1%
COc1ccc(Nc2ncc3nc(-c4cccs4)c(=O)n(Cc4cccc(OC)c4)c3n2)cc1 -12.7%
COC(=O)C1N[C@@H]([C@@H](NC(=O)COc2ccccc2)C(=O)NC2CC2)SC1(C)C (stereo partly drawn) -15.8%
O=c1c(-c2cc(F)cc(F)c2)nc2cnc(N3CCNCC3)nc2n1-c1ccccc1 -21.8%
COc1ccccc1-c1nc(NC2CC2)c2ccccc2n1 -30.4%
O=c1[nH]cnc2nc[nH]c12 -15.8%
Nc1ccc2nc[nH]c2c1 -7.36%
CCCCCCCCCCCCCCCC[n+]1ccc(CC(O)c2c(C)[nH]c3ccccc23)c2ccccc21 (stereo not drawn) -32.6%
CC(=O)OC1CC[C@]2(C)C(=CCC3C4CCC(C(C)CCCC(C)C)[C@]4(C)CCC32)C1 (stereo partly drawn) -16.6%
CC(C)(C)c1ccc(O)c(O)c1 -17.1%
CN1CC(O)C(O)C(O)C1CO (stereo not drawn) -29.9%
COc1cccc(OC)c1CN1CCC2(CCC(CNC(=O)c3ccn(C)n3)O2)CC1 (stereo not drawn) -2.73%
Cc1ccc(S(=O)(=O)NCc2ccccc2)cc1 -25.6%
O=C(O)/C=C/C(O)c1ccc(Cl)cc1 (stereo not drawn) 5.52% and 1.64%
c1ccc(C(c2ccccc2)N2CCCC3(CCNCC3)C2)cc1 -10.4%
C[C@]12CCC(=O)C=C1CC[C@@H]1[C@@H]2CC[C@@]2(C)[C@H]1CC[C@]2(O)C(=O)CO 0.99% and -53.5%
COC(=O)C1=C(C)NC(C)=C(C(=O)OC(C)(C)CN(C)CCC(c2ccccc2)c2ccccc2)C1c1cccc([N+](=O)[O-])c1 (stereo not drawn) 8.11% and -22%
CC(C)Cc1nc2cc(NS(=O)(=O)N(C)C)cc(C(=O)N3CCN(c4ccccc4)CC3)c2n1C 4.11%
COc1cc(/C=C/C(=O)/C=C(O)/C=C/c2ccc(O)c(OC)c2)ccc1O 29.7%
Nc1nc2c(ncn2C2OC(COC(=O)c3ccccc3)C(OC(=O)c3ccccc3)C2OC(=O)c2ccccc2)c(=O)[nH]1 (stereo not drawn) -20.2%
COc1ccc(-n2c(=O)c(-c3ccccc3)nc3cncnc32)cc1 -4.71%
Cc1cccc2c(Nc3ccc4c(c3)OCO4)nc(CN3CCC(N4CCCCC4)CC3)nc12 -5.23%
Cc1ccnc2ncccc12 -19%
COc1ccccc1N1CCN(CCCNc2c(C)c(=O)n(C)c(=O)n2C)CC1 -10.7% and -63.3%
O=C1CC[C@@H](C(=O)N2CSC[C@H]2C(=O)O)N1 ([pGlu]-[Thz]-OH) 5.28%
Oc1c(Cl)cc(Cl)c2cccnc12 -11.9%
c1ccc(-c2ccc(C(c3ccccc3)n3ccnc3)cc2)cc1 (stereo not drawn) -6.7%
COc1cc2ncnc(Nc3cccc(Br)c3)c2cc1OC -2.32%
CN(C)CCC(c1ccc(Br)cc1)c1ccccn1 (stereo not drawn) -28.9% and -5.6%
CCCCNC(=O)[C@@H]1CC=C[C@@H]2CCN(Cc3ccc(OC)c(OC)c3)C(=O)[C@@H]21 -20.9%
Clc1ccc(-n2cccc2CN2CCOc3ccc(CN4CCOCC4)cc3C2)nc1 -40.4%
COc1cc(Nc2c(C#N)cnc3cc(OCCCN4CCN(C)CC4)c(OC)cc23)c(Cl)cc1Cl -0.507%
COCCNC(=O)c1cn(C2CCN(C3CCCC3)CC2)nn1 2.88%
C[C@@]12CC(=O)C3=C(CCCC3=O)N1CCc1ccccc12 -12.1%
